T1: high-affinity hIL-2 receptor (IL-2Rαβγ) on NK-92 cells (human, UniProt P01589 22-272; P14784 27-551; P31785 23-369)
T1 sequence 1: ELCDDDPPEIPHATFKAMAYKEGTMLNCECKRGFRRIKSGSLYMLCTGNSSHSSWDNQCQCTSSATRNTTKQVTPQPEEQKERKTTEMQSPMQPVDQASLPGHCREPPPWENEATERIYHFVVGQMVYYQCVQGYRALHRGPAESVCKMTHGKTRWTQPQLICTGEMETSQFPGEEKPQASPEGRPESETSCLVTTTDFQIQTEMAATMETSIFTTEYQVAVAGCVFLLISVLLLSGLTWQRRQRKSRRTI
T1 sequence 2: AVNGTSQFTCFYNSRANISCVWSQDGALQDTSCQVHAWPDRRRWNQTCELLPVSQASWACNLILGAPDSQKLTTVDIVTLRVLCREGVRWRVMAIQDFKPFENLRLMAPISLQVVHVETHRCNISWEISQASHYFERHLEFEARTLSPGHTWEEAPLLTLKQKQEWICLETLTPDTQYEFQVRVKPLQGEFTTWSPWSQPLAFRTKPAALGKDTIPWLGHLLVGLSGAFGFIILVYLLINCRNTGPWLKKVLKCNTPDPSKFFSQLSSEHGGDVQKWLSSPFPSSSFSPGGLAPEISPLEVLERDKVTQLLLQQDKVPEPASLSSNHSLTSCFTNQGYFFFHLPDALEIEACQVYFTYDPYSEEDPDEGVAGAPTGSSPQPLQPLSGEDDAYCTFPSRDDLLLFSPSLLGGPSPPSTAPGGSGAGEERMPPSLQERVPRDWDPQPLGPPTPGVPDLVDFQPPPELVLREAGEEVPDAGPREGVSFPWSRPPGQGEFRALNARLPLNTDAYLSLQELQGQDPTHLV
T1 sequence 3: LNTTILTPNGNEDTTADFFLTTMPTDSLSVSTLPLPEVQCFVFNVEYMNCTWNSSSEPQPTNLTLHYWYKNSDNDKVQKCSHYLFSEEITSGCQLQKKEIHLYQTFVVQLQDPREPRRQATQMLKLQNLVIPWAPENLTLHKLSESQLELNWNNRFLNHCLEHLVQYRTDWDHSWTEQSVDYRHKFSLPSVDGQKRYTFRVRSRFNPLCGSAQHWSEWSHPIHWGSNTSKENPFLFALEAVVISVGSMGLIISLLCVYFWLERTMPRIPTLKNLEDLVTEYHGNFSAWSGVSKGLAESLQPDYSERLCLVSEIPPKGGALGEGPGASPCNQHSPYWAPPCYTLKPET

T2: intermediate-affinity hIL-2 receptor (IL-2Rβγ) on TF1+IL-2Rβ cells (human, UniProt P14784 27-551; P31785 23-369)
T2 sequence 1: T1 sequence 2
T2 sequence 2: T1 sequence 3

B1: 1H3-hIgG1-L6-hIL-2 (D20M/R38E) (other)
heavy: EVQLVESGGGLVQPGRSLKLSCAVSGFTFSDYAMAWVRQAPKKGLEWVATISYDGSRTYYRDSVKGRFTISRDNAKITLYLQMDSLRSEDTATYYCARHGSGYFDYWGQGVMVTVSS[not shown - about 450 residues with a human IgG1 Fc and changes]
light: DTVLTQSPALAVSPGERVTISCRASESVRTGVHWYQQKPGQQPKLLIYGASNLESGVPARFSGSGSGTDFTLTIDPVEADDTATYFCQQSWNDPFTFGSGTKLEIKRTVAAPSVFIFPPSDEQLKSGTASVVCLLNNFYPREAKVQWKVDNALQSGNSQESVTEQDSKDSTYSLSSTLTLSKADYEKHKVYACEVTHQGLSSPVTKSFNRGEC
B2: 1H3-hIgG1-L6-hIL-2 (D20E/R38E) (other)
heavy: EVQLVESGGGLVQPGRSLKLSCAVSGFTFSDYAMAWVRQAPKKGLEWVATISYDGSRTYYRDSVKGRFTISRDNAKITLYLQMDSLRSEDTATYYCARHGSGYFDYWGQGVMVTVSS[not shown - about 450 residues with a human IgG1 Fc and changes]
light: B1 light
B3: 1H3-hIgG1-L6-hIL-2 (D20Y/R38E) (other)
heavy: EVQLVESGGGLVQPGRSLKLSCAVSGFTFSDYAMAWVRQAPKKGLEWVATISYDGSRTYYRDSVKGRFTISRDNAKITLYLQMDSLRSEDTATYYCARHGSGYFDYWGQGVMVTVSS[not shown - about 450 residues with a human IgG1 Fc and changes]
light: B1 light
B4: 1H3-hIgG1-L6-hIL-2 (D20W/R38E) (other)
heavy: EVQLVESGGGLVQPGRSLKLSCAVSGFTFSDYAMAWVRQAPKKGLEWVATISYDGSRTYYRDSVKGRFTISRDNAKITLYLQMDSLRSEDTATYYCARHGSGYFDYWGQGVMVTVSS[not shown - about 450 residues with a human IgG1 Fc and changes]
light: B1 light
B5: 1H3-hIgG1-L6-hIL-2 (D20V/R38E) (other)
heavy: EVQLVESGGGLVQPGRSLKLSCAVSGFTFSDYAMAWVRQAPKKGLEWVATISYDGSRTYYRDSVKGRFTISRDNAKITLYLQMDSLRSEDTATYYCARHGSGYFDYWGQGVMVTVSS[not shown - about 450 residues with a human IgG1 Fc and changes]
light: B1 light
B6: 1H3-hIgG1-L6-hIL-2 (D20N/R38E) (other)
heavy: EVQLVESGGGLVQPGRSLKLSCAVSGFTFSDYAMAWVRQAPKKGLEWVATISYDGSRTYYRDSVKGRFTISRDNAKITLYLQMDSLRSEDTATYYCARHGSGYFDYWGQGVMVTVSS[not shown - about 450 residues with a human IgG1 Fc and changes]
light: B1 light
B7: 1H3-hIgG1-L6-hIL-2 (D20T/R38E) (other)
heavy: EVQLVESGGGLVQPGRSLKLSCAVSGFTFSDYAMAWVRQAPKKGLEWVATISYDGSRTYYRDSVKGRFTISRDNAKITLYLQMDSLRSEDTATYYCARHGSGYFDYWGQGVMVTVSS[not shown - about 450 residues with a human IgG1 Fc and changes]
light: B1 light
B8: 1H3-hIgG1-L6-hIL-2 (D20L/R38E) (other)
heavy: EVQLVESGGGLVQPGRSLKLSCAVSGFTFSDYAMAWVRQAPKKGLEWVATISYDGSRTYYRDSVKGRFTISRDNAKITLYLQMDSLRSEDTATYYCARHGSGYFDYWGQGVMVTVSS[not shown - about 450 residues with a human IgG1 Fc and changes]
light: B1 light
B9: 1H3-hIgG1-L6-hIL-2 (D20G/R38E) (other)
heavy: EVQLVESGGGLVQPGRSLKLSCAVSGFTFSDYAMAWVRQAPKKGLEWVATISYDGSRTYYRDSVKGRFTISRDNAKITLYLQMDSLRSEDTATYYCARHGSGYFDYWGQGVMVTVSS[not shown - about 450 residues with a human IgG1 Fc and changes]
light: B1 light
B10: 1H3-hIgG1-L6-hIL-2 (D20R/R38E) (other)
heavy: EVQLVESGGGLVQPGRSLKLSCAVSGFTFSDYAMAWVRQAPKKGLEWVATISYDGSRTYYRDSVKGRFTISRDNAKITLYLQMDSLRSEDTATYYCARHGSGYFDYWGQGVMVTVSS[not shown - about 450 residues with a human IgG1 Fc and changes]
light: B1 light
B11: 1H3-hIgG1-L6-hIL-2 (D20Q/R38E) (other)
heavy: EVQLVESGGGLVQPGRSLKLSCAVSGFTFSDYAMAWVRQAPKKGLEWVATISYDGSRTYYRDSVKGRFTISRDNAKITLYLQMDSLRSEDTATYYCARHGSGYFDYWGQGVMVTVSS[not shown - about 450 residues with a human IgG1 Fc and changes]
light: B1 light
B12: 1H3-hIgG1-L6-hIL-2 (D20P/R38E) (other)
heavy: EVQLVESGGGLVQPGRSLKLSCAVSGFTFSDYAMAWVRQAPKKGLEWVATISYDGSRTYYRDSVKGRFTISRDNAKITLYLQMDSLRSEDTATYYCARHGSGYFDYWGQGVMVTVSS[not shown - about 450 residues with a human IgG1 Fc and changes]
light: B1 light

target: T1, high-affinity hIL-2 receptor (IL-2Rαβγ) …; assay: cell-based or functional assay

Fold change from rhIL-2 (NK-92) | Binder
> 10000 fold | B1
77 fold | B2
> 10000 fold | B3
> 10000 fold | B4
> 10000 fold | B5
1520 fold | B6
524 fold | B7
> 10000 fold | B8
1290 fold | B9
> 10000 fold | B10
> 10000 fold | B11
> 10000 fold | B12

target: T2, intermediate-affinity hIL-2 receptor …; assay: cell-based or functional assay

Fold change from rhIL-2 (TF1 + IL-2Rβ) | Binder
2610 fold | B1
12 fold | B2
> 10000 fold | B4
1850 fold | B5
378 fold | B6
75 fold | B7
> 10000 fold | B8
212 fold | B9
> 10000 fold | B10
6660 fold | B11
> 10000 fold | B12
